From the supplement of paper PMC11417369
± gives the standard deviation of the averaged measurements. The list shows a part of the results.

Tested on: PfAP2-G AP2 domain (GST-tagged)
Assay: gcPBM binding intensity (ln(normalized median fluorescence intensity)); higher = stronger DNA binding
Summary of the method: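 An Agilent 4 × 180k array of primer-extended double-stranded 36-bp intergenic genomic probes, with negative controls, was incubated for 1 h with GST-tagged P. falciparum DNA-binding domains expressed in E. coli. Alexa488 anti-GST antibody detected bound protein, scanned at 488 nm. Binding intensity is the highest Masliner-normalised natural-log median intensity across replicate spots of either probe orientation.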

Sequence	gcPBM binding intensity (ln)
AAAAATAAGAGCGTAGCACACACGCATTTTATAAAT [CACACA_site8147]	9.985 ± 0.035
TCTTTAATGATGTGTACACAAGAAAACATTGTTAAG [CACACA_site5299]	11.7 ± 0.89
TATTTCTTATTACATACACACATATACATATATGAC [CACACA_site3201]	10.12 ± 0.092
TCCAGGCTACACTCTAGTACTCGTAGGGTTATGAGA [XGTACX_site4945]	11.1 ± 0.7
TTATTGAACTTTTATAAAACCTGTATTATTATCTCT [CACACA_negctrl_site767]	9.99 ± 0.071
TTATATTAATAATAAAGTACAAAAAATCATATATAA [XGTACX_site799]	11.1 ± 0.67
ATGACATATAAATATACACACATACGTAAGTATATT [CACACA_site5058]	9.96 ± 0.11
ATATATATATATATATGTACATATGTTAGGATCAAA [XGTACX_site8626]	11.3 ± 0.68
AAATTAAAAATAATTACACACATAGAAAAATTATAT [CACACA_site2275]	9.79 ± 0.2
GTAATACACAGACACACACACATACACATATTTATA [CACACA_site7313]	10.3 ± 0.17
TTCTATATATAATATTGTACTTAATTATTTTATTTT [XGTACX_site2701]	11.1 ± 0.59
AGTGTATATAGAAACATACACACATATTAATTTTAC [CACACA_site3127]	9.985 ± 0.021
TAGCTGTTCAAAAAATGTACATATATAATATATATA [XGTACX_site5842]	11.2 ± 0.91
ATATATATGCATTCAAGTACAAAAATATATGTTAAA [XGTACX_site910]	10.9 ± 0.64
TTATATTTATATTTATGTACATATTTTGTGTGAAAA [XGTACX_site2367]	11.4 ± 0.97
TCTATTTATATGTATTGTACAATATAGATGTGTATT [XGTACX_site5646]	10.9 ± 0.51
CCTAAATAATATCTATCACACACGCATATATACATA [CACACA_site8838]	9.73 ± 0.18
AAAAAAAAAAAAAAAACACACATATATATATAATAT [CACACA_site1159]	10.1 ± 0.21
GATAATCAGAATGGGGTGCAAAGAAAAAAAAAAAAA	10.6 ± 0.8
ATATAATAACATAACACACACATGTATTTATAGGTG [CACACA_site359]	10.31 ± 0.035
ACATTATAATATTATTGTACTATATATATAATATAT [XGTACX_site2291]	11 ± 0.47
ATGTATATAAATAGGTGTACATATAAGGTGTTAAGC [XGTACX_site5465]	11.6 ± 0.83
ATAATAAGAAAAAAAAAAAAAAAAAAAAAAAAAAAA [TGCATGCA_negctrl_site377]	9.59 ± 0.58

Sequence	gcPBM binding intensity (ln)
ATATTGAAATGTTAATAGAAATATATGGTTAAATTG [XGTACX_negctrl_site212]	9.89
TACACAAACGTTATACGTACACAGGTTTTTCTTTTA [XGTACX_site5427]	11.4 ± 0.91
AGAATTAAAATAATACGTACACACATGTATAATACA [XGTACX_site1878]	11.5 ± 0.82
ATTATATCTATAATATGTACATATTATAATATATAT [XGTACX_site3211]	11.1 ± 0.55
AATTGTTAATGGTACGAACACACATATAAAGATGCA [CACACA_site2043]	10.7 ± 0.43
ATATGGCATAAAACATGTACATGTTCATAAATATAT [XGTACX_site1924]	11.2 ± 0.68
ACCTCTCATATGTTATAAACAAAATGAAAATTTCAT [XGTACX_negctrl_site303]	10.1 ± 0.31
ATTTTATTTTATTAAGTGCAAAAAAAAAAAAAGAAA	10.1 ± 0.45
TGTACAATATAAGGAGCACACAAAAATGGATAAATA [CACACA_site8216]	10.45 ± 0.085
AAATAATCTATACACAACGTATAAGAATAATATATG [TGCATGCA_negctrl_site422]	10.1 ± 0.18
TAAATAATGTTAAACACACATACCGATATATAATTA [CACACA_site2711]	9.815 ± 0.007
GCTAGTTCATAAAATTGTACAAAAAAAAAAAAAAAA [XGTACX_site2223]	10.8 ± 0.76
TTTTTTATCTAATATTTTATAATTTTCATAAATTTG [GTGCAC_negctrl_site534]	9.71 ± 0.16
AAAAAAAAAAAAAAAAGTACATGCCATATATTTTCA [XGTACX_site4580]	11.6 ± 0.83
TTTTAAGAAAAAAAATGTACACATGAAAATAGTGAA [XGTACX_site5898]	11.4 ± 0.77
AAATTTTCACTTCAAAAACACACGTATTTTTTTCCT [CACACA_site3813]	10.115 ± 0.007
TGTTATATTATAACTACACACGTATTATGTTATATC [CACACA_site839]	10.5 ± 0.29
TATATATAAGAAAAAAGTACAGATATATATATATTC [XGTACX_site4788]	11.6 ± 1.1
TATACAGACAGACACACACACATATATATATATATA [CACACA_site1734]	10.2 ± 0.24
AGAACTTAATGCTGCACACAAAAAAAAGGAAAAATA [CACACA_site1353]	10.1 ± 0.42
TTCTTTAAAATGATATACGTTATAAATATATATATA [XGTACX_negctrl_site256]	9.99 ± 0.2
AACTTGTATATATACACACACACACTGTCTTTTTTT [CACACA_site1963]	10.08 ± 0.014
